Reference: the GPR68 mutational scans of Howard et al. (2025)

B1: GPR68, Q15743 (parent)
chain: MGNITADNSSMSCTIDHTIHQTLAPVVYVTVLVVGFPANCLSLYFGYLQIKARNELGVYLCNLTVADLFYICSLPFWLQYVLQHDNWSHGDLSCQVCGILLYENIYISVGFLCCISVDRYLAVAHPFRFHQFRTLKAAVGVSVVIWAKELLTSIYFLMHEEVIEDENQHRVCFEHYPIQAWQRAINYYRFLVGFLFPICLLLASYQGILRAVRRSHGTQKSRKDQIQRLVLSTVVIFLACFLPYHVLLLVRSVWEASCDFAKGVFNAYHFSLLLTSFNCVADPVLYCFVSETTHRDLARLRGACLAFLTCSRTGRAREAYPLGAPEASGKSGAQGEEPELLTKLHPAFQTPNSPGSGGFPTGRLA

Key:
[1] = variants of: B1; test: cAMP reporter score (Enrich2 score, wild type = 0); higher = more signal; HEK293T, FACS bins
[2] = variants of: B1; test: surface expression score (Enrich2 score, wild type = 0); higher = more signal; HEK293T, FACS bins

Variant	cAMP reporter score ([1]; pH 5.5)	cAMP reporter score ([1]; pH 6)	cAMP reporter score ([1]; pH 6, modulator: ogerin)	cAMP reporter score ([1]; pH 6.5, modulator: ogerin)	surface expression score [2]
F260M	0.798	-0.599	-0.232	-0.512	-0.371
F260N	0.319	–	1.08	2.33	1.07
F260P	-1	-1.03	-1.53	-0.791	0.026
F260Q	-1.05	1.03	-0.492	-0.15	-0.199
F260R	0.059	-0.28	–	0.123	1.26
F260S	0.183	-0.24	0.549	-0.198	0.898
F260T	-0.256	-0.683	0.017	-0.787	0.432
F260V	-0.424	–	–	-3.63	–
F260W	-0.07	-1.01	0.097	0.046	-0.055
F260Y	-0.457	-1.33	-0.604	-0.743	0.329
F260_A261del	-1.3	-1.13	-1.2	-1.24	-0.565
F260_A261insG	-0.951	-1.02	-1.54	-1.07	-0.702
F260_A261insGS	-1.11	-2.17	-2.11	-1.11	-0.954
A261C	-0.343	-0.706	-0.768	-1.3	-0.055
A261D	-1.14	-1.4	-1.46	-1.39	-0.315
A261E	0.059	-0.703	–	-1.06	-0.541
A261G	-0.255	-0.705	-1.11	-1.04	-0.006
A261H	-1.46	-1.37	-2.25	-0.808	0.939
A261I	-0.186	-1.03	-0.7	-0.426	-0.546
A261K	-1.22	-0.289	-1.34	-0.782	0.752
A261L	-1.26	-0.308	-1	-0.685	-0.516

Variant	cAMP reporter score ([1]; pH 5.5)	cAMP reporter score ([1]; pH 6)	cAMP reporter score ([1]; pH 6, modulator: ogerin)	cAMP reporter score ([1]; pH 6.5, modulator: ogerin)	surface expression score [2]
A261M	-1.7	-1.35	-0.601	–	0.162
A261N	-1.76	–	-2.47	-0.758	-0.004
A261P	-0.296	-1.1	-0.207	-0.35	0.26
A261Q	-0.906	-0.856	-0.5	-0.804	1.84
A261R	-1.14	–	-0.222	-0.949	1.86
A261S	-0.033	0.184	-0.646	0.228	-1.1
A261T	0.873	-0.765	-0.253	-0.989	1.11
A261V	-0.012	-0.436	0.528	–	–
A261W	-1.44	-1.19	-1.84	-2.28	-0.141
A261Y	-1.24	-1.94	-1.55	-1.54	0.427
A261_G263del	-2.28	-1.65	-1.07	-1.72	-0.396
A261_K262del	-1.34	-0.209	–	-0.144	0.053
A261_K262insGS	-1.25	-0.845	-1.13	-1.32	-1.05
A261_K262insGSG	-0.918	-0.834	-1.83	-0.855	-0.761
K262A	0.907	0.83	0.154	0.421	0.414
K262C	-0.543	-1.08	-0.451	-0.045	-1.97
K262D	0.762	0.057	0.854	0.169	-0.615
K262E	0.879	–	0.97	0.838	-0.355
K262F	-0.008	0.336	-0.252	-1.06	-1.28
K262G	0.758	0.331	0.229	0.277	0.588
K262H	-0.809	-0.31	-0.613	-0.917	-0.941

Variant	cAMP reporter score ([1]; pH 5.5)	cAMP reporter score ([1]; pH 6)	cAMP reporter score ([1]; pH 6, modulator: ogerin)	cAMP reporter score ([1]; pH 6.5, modulator: ogerin)	surface expression score [2]
K262I	-0.112	-0.043	-0.167	-0.028	-0.173
K262L	0.75	-0.151	0.743	-0.498	0.091
K262M	0.544	0.512	0.643	-0.28	-0.067
K262N	0.077	-0.572	-0.27	-0.619	0.036
K262P	-0.543	-0.975	-1.42	-0.65	2.13
K262Q	-0.052	-0.562	0.219	-0.523	1.24
K262R	0.388	0.652	0.809	1.03	-0.064
K262S	0.043	1	0.476	1.92	0.372
K262V	1.43	2.32	0.606	–	1.43
K262W	1.11	-0.243	1.39	0.105	0.669
K262Y	-0.08	-0.281	0.546	0.301	-1.15
K262_V264del	-0.847	-1.51	-2.35	-1.12	-1.32
G263_F265del	0.011	-0.279	-0.28	0.541	-1.02
G263_V264del	-1.25	-1.86	-1.71	-1.34	-1.56
G263_V264insGS	-0.597	-1.07	-1.88	-1.26	-0.352
G263_V264insGSG	-1.59	-1.28	-1.95	-1.62	-1.81
V264_F265insG	-0.732	-0.314	-0.525	-0.477	-1.9
V264_F265insGSG	-1.84	-1.5	-1.03	-0.626	-2.04
V264del	-1.01	-0.227	-0.955	-0.128	-1.85
F265A	0.468	–	1.18	-0.201	–
F265C	0.204	-0.748	-1.41	-0.746	1.34

Scores whose standard error is large were omitted. Not listed are two conditions whose scores span a narrow range. Read del as a deletion of the residues named and ins as an insertion between two positions. For some assays here: The concentration of ogerin is not given here.
